The structures appear in SMILES notation. About 14,000 (4.5%) of roughly 310,000 compounds showed an effect of 50% or more. Effects have a minus sign here. This is one part of the list.
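Note: peak tail current of the secondary pulse compared with the same well before compound.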

human ether-à-go-go-related gene (hERG) potassium channel, sequence (Q12809 whole entry, looked up): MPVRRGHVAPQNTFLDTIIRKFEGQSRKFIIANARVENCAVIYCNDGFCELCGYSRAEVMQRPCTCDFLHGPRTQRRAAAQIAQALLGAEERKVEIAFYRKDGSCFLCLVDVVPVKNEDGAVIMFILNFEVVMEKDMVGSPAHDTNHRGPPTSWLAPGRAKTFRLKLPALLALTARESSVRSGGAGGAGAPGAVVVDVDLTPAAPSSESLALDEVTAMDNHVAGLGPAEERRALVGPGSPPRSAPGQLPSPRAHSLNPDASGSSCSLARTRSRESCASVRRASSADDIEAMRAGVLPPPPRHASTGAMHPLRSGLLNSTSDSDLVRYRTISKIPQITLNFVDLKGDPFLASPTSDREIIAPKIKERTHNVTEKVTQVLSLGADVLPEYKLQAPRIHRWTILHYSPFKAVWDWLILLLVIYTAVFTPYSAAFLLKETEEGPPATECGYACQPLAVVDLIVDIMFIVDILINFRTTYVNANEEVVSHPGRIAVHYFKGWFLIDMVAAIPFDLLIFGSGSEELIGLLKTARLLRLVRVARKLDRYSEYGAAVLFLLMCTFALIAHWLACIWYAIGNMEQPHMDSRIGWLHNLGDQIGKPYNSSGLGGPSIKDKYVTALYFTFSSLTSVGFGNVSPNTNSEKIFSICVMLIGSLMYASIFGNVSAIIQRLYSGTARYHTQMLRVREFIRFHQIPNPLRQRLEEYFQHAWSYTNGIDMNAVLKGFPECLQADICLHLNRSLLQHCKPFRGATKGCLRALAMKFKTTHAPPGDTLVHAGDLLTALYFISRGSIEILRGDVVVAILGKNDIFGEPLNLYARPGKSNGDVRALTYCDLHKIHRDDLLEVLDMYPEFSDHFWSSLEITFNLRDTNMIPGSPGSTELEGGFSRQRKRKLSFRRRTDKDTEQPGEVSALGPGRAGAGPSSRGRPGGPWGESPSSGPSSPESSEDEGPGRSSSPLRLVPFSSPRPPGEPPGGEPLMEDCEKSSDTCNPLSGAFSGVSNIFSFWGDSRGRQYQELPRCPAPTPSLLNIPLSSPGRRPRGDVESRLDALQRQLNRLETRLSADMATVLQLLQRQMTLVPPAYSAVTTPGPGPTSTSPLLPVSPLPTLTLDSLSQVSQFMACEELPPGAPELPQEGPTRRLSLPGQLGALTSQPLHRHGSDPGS

The assay has as its target human ether-à-go-go-related gene (hERG) potassium channel (human, UniProt Q12809). The assay is described as follows: primary screen, population patch clamp on CHO cells stably expressing hERG.
Consider `CN(C)c1ccc(/C=N\Nc2nc(-c3ccccc3)cc(=O)[nH]2)cc1`, for which the “hERG current change (%, negative = inhibition) at 10uM” value is on record as -10.6%.

`COc1ccc(OC)c(-c2cc(C(=O)N3CCCc4ccccc43)no2)c1`: the “hERG current change (%, negative = inhibition) at 10uM” value turned out to be 3.02%. The value for `N#Cc1ccc(C(=O)Nc2nc(SCc3ccc(Cl)cc3)n[nH]2)cc1` was 58.2%. The value for `COc1ccc(C(CNC(=O)C2CC2)N(C)C)cc1` (centres unmarked) was 1.52%; that for `Cc1ccc(-c2csc(NC(=O)c3ccc(-c4ccccc4)cc3)n2)o1` was 15.8%. The value for `CCN(CC)CCCN1C(=O)C(O)=C(C(=O)c2ccco2)C1c1ccc(C)o1` (centres unmarked) was 0.173%; that for `O=C(CSc1cccc[n+]1[O-])NCCCc1ccccc1` was 0.0216%. With `CO/C(N)=C(\C#N)N=Cc1ccccc1Cl`, the “hERG current change (%, negative = inhibition) at 10uM” value came out at 20.9%. The value for `COc1cc2[nH]c(=O)n(CCC(=O)N3CCN(c4cccc(C)c4C)CC3)c(=O)c2cc1OC` was -16.3%; that for `Cc1cc(C)n2c(SCc3ccc(Cl)cc3Cl)nnc2n1` was -5.51%; that for `Cc1ccccc1NS(=O)(=O)c1nnc(NC(=O)C(C)C)s1` was 20.6%.

Take `CN(C)S(=O)(=O)N1CCN(c2cccc(Cl)c2)CC1`: the “hERG current change (%, negative = inhibition) at 10uM” value is -7.28%.

For the compound `FC(F)(F)c1ccc(CSc2ccccn2)cc1`, the “hERG current change (%, negative = inhibition) at 10uM” value was 5.44%. The value for `Cc1ccc(S(=O)(=O)N2CCN(C)CC2)c2nsnc12` was 24.1%; that for `CCCc1c(C(=O)N/N=C(\C)CCc2ccccc2)nnn1-c1nonc1N` was 4.63%; that for `Cc1ccc(C(=O)/C=C/c2ccc3c(c2)OCCO3)c(O)c1` was 16.4%. The value for `O=C(Nc1cccc(F)c1)c1c(O)c2cccc3c2n(c1=O)CCC3` was 8.07%; that for `Br.CC1CCCC(C)N1Cc1cn2ccccc2n1` (centres unmarked) was 7.29%; that for `CCn1ccnc1CNC(=O)CC1C(=O)NCCN1Cc1ccccc1F` (centres unmarked) was 0.249%. Turning to `CCOC(=O)C1=C(C)NC(=O)NC1c1ccc(OCC(=O)Nc2ccccc2)c(OC)c1` (centres unmarked), the “hERG current change (%, negative = inhibition) at 10uM” value is recorded as -26.5%. As to `COc1ccc(-c2cc(-c3cccs3)nc(OC)c2C#N)cc1OC`, the “hERG current change (%, negative = inhibition) at 10uM” value amounted to 30.3%. The value for `O=C(Nc1ccncc1)c1c(F)c(F)c(F)c(F)c1F` was 18%; that for `COc1ccc(-c2cc(C(=O)NC(C)C)no2)cc1` was 0.389%; that for `CCN(CC(=O)Nc1cc(Cl)ccc1C)C(=O)CSCc1ccc(C)cc1` was -9.48%. For `CCCCC(O)(CCCC)C(=O)NN(C(=O)OC)c1ccccc1`, the “hERG current change (%, negative = inhibition) at 10uM” value worked out at 3.62%. Consider `COc1ccc(S(=O)(=O)N(CC(=O)NCc2ccco2)c2ccccc2)cc1`, for which the “hERG current change (%, negative = inhibition) at 10uM” value was found to be 1.06%. The value for `O=[N+]([O-])/C=C/c1ccc2c(ccn2Cc2ccccc2)c1` was 15.8%; that for `O=C(COC(=O)c1ccccc1Br)Nc1nnc(-c2ccccc2)o1` was -6.09%; that for `CCC1(C)CC(c2csc(N)n2)CCO1` (centres unmarked) was -19.4%. The value for `CCOc1ccc(N(CC(=O)N2CCN(Cc3ccccc3)CC2)S(C)(=O)=O)cc1` was -12.2%; that for `Cc1cc(C)c(S(=O)(=O)C(C)C)c(=O)[nH]1` was 11.9%; that for `O=[N+]([O-])c1ccc(OCCO)nc1` was 11.2%. The value for `COc1ccccc1NC1=NCCS1` was -9.72%; that for `O=S(=O)(NC1=NCCC1)c1ccc(F)cc1` was 6.15%; that for `O=Cc1c(NCc2cccc(F)c2)c2ccccc2[nH]c1=O` was 4.17%.

`C=CCN1C(=O)CSC1=Nc1ccc(NC(C)=O)cc1`: the “hERG current change (%, negative = inhibition) at 10uM” value is listed as -4.78%.

Take `O=C(NC(=S)Nc1ncccn1)c1ccccc1Br`: the “hERG current change (%, negative = inhibition) at 10uM” value turned out to be 13.6%.

As to `C/C(=N\c1nc2ccccc2n1C)c1cc(Cl)ccc1O`, the “hERG current change (%, negative = inhibition) at 10uM” value is recorded as -5%. Turning to `Cc1cccc(NC(=O)CSCC(=O)Nc2cc(Cl)ccc2N2CCN(C)CC2)c1`, the “hERG current change (%, negative = inhibition) at 10uM” value was -72.8%. As for `Cc1cc(C)nc(SCC(=O)c2ccc(F)c(C)c2)n1`, the “hERG current change (%, negative = inhibition) at 10uM” value stood at 7.94%. For the compound `Cc1cc(C)nc(/N=C(\N)Nc2ccc(SC(F)F)cc2)n1`, the “hERG current change (%, negative = inhibition) at 10uM” value was -74.7%. The value for `O=C(NN1C(=O)/C(=C/c2cccs2)SC1=S)c1cccnc1` was 13.7%; that for `Cc1c(N2C(=O)C(=O)/C(=C(/O)c3ccccc3)C2c2ccc(F)cc2)c(=O)n(-c2ccccc2)n1C` (centres unmarked) was 9.58%; that for `CC(NS(=O)(=O)c1ccccc1)C(c1cccs1)N1CCOCC1` (centres unmarked) was 0.443%. Take `CC(C)(C)c1ccc(S(=O)(=O)O/N=C2/CCCCC2c2ccc([N+](=O)[O-])cc2[N+](=O)[O-])cc1` (centres unmarked): the “hERG current change (%, negative = inhibition) at 10uM” value is recorded as -2.18%. The value for `CCc1nnc(NC(=O)[C@@H]2CCCN2S(=O)(=O)c2ccc3c(c2)OCCO3)s1` was 3.86%; that for `O=C(CCc1ccccc1)NC(=S)Nc1cccc(C(=O)O)c1` was 13.2%; that for `Cc1cccc(N2CCN(C(=O)C3CCN(S(=O)(=O)c4cccnc4)CC3)CC2)c1C` was -35.1%.

For the compound `O=C(NCCS(=O)(=O)N1CCN(c2cccc(Cl)c2)CC1)c1ccc2c(c1)OCO2`, the “hERG current change (%, negative = inhibition) at 10uM” value was 8.12%. `Cn1ccnc1SCC(=O)Nc1ccccc1`: the “hERG current change (%, negative = inhibition) at 10uM” value is on record as -0.72%. For `CCCC(c1nnnn1Cc1ccccc1)N1CCN(c2ccccc2OC)CC1.Cl` (centres unmarked), the “hERG current change (%, negative = inhibition) at 10uM” value amounted to 5.61%. Take `Cc1[nH]c2ccc(C(=O)NCCCN3CCCCCC3)cc2c1C`: the “hERG current change (%, negative = inhibition) at 10uM” value is -13.1%. `CCn1c(SCC(=O)Nc2ccc(OC)c(OC)c2)nnc1-c1ccco1`: the “hERG current change (%, negative = inhibition) at 10uM” value is -0.908%. Consider `O=C(NCCOc1ccc(F)cc1)C1CCC(=O)N(CCCN2CCCC2=O)C1` (centres unmarked), for which the “hERG current change (%, negative = inhibition) at 10uM” value stood at 17%. The value for `CCOC(=O)c1cc2c(ccn2C)n1CC(=O)N(Cc1ccccc1)c1ccccc1` was -22.6%; that for `CCS(=O)(=O)N1CCC(NC(=O)c2ccco2)CC1` was 3.51%.

Turning to `Cc1cc(=O)n2nc(-c3ccccc3)sc2n1`, the “hERG current change (%, negative = inhibition) at 10uM” value turned out to be 8.94%. In the case of `COC(=O)c1ccc2c(=O)n(C3CCCCC3)c(SCC#N)nc2c1`, the “hERG current change (%, negative = inhibition) at 10uM” value is 18.2%.

Take `Cc1cccc(NC(=O)CN2C(=O)S/C(=C\c3ccc(O)c([N+](=O)[O-])c3)C2=O)c1`: the “hERG current change (%, negative = inhibition) at 10uM” value came out at 15.7%. With `CCN1CCN(c2nc(C)c3c(n2)CCCC3=O)CC1`, the “hERG current change (%, negative = inhibition) at 10uM” value is recorded as 7.28%. The value for `CCCC12CN3CC(C)(CN(C1)C3c1ccc(OC)cc1)C2=O` (centres unmarked) was -6.04%; that for `COc1cc(/C=C2/C(=O)NN(c3ccc(Cl)cc3)C2=O)ccc1OC(=O)c1ccco1` was 12.3%. The value for `Cc1nc2cc(C(F)(F)F)ccc2n1C1CCN(Cc2nnnn2Cc2ccc3c(c2)OCO3)CC1` was -54.1%. The value for `O=C(NCCOc1ccccc1)c1ccc2n[nH]nc2c1` was 0.536%; that for `Nc1c(C(=O)Nc2ccccc2)sc2nc3c(c(-c4ccco4)c12)CCCC3` was 15.2%; that for `CC(OC(=O)CCCC(=O)Nc1ccc(F)cc1)C(=O)c1ccccc1` (centres unmarked) was -5.79%.

As to `Cc1cccn2c(=O)c3cc(C(=O)NC4CCCC4)c(=N)n(C4CCCC4)c3nc12`, the “hERG current change (%, negative = inhibition) at 10uM” value is -79.2%.

Take `N#C/C(=C/c1ccc(F)cc1)S(=O)(=O)c1ccccc1`: the “hERG current change (%, negative = inhibition) at 10uM” value turned out to be 21.3%. With `Nc1nnc(SCC(=O)NNC(=O)c2ccc(Cl)cc2)s1`, the “hERG current change (%, negative = inhibition) at 10uM” value was -0.0303%.

As for `COc1ccc(NC(=O)C2CC(=O)n3cnnc3S2)cc1` (centres unmarked), the “hERG current change (%, negative = inhibition) at 10uM” value is given as -0.251%. The value for `COc1ccc(CCN2CC(C(=O)N3CCC(O)(c4ccccc4)CC3)CCC2=O)cc1` (centres unmarked) was -12.5%; that for `Cn1nc(C(=O)Nc2c(-c3ccccc3)nc3sccn23)c2ccccc2c1=O` was 16.1%; that for `COc1ccc(NC(=O)C2CCC(CNS(=O)(=O)c3csc(C(N)=O)c3)CC2)cc1OC` (centres unmarked) was 15.3%. The value for `O=C(NC1=NCCS1)c1cccc(NC(=O)c2ccco2)c1` was 8.61%. On to `O=c1[nH]cnc2c1N=C(c1cccc([N+](=O)[O-])c1)CC(c1ccccc1)N2` (centres unmarked), for which the “hERG current change (%, negative = inhibition) at 10uM” value stood at 13.1%.

Regarding `COc1ccc(CN2C(=O)c3cccnc3C2=O)cc1S(=O)(=O)N1CCOc2ccccc21`, the “hERG current change (%, negative = inhibition) at 10uM” value is given as -14.1%. The value for `CCN(CC)C(=O)C(=O)N/N=C/c1ccc(Cl)cc1Cl` was 11.6%; that for `COc1ccccc1Cn1c(=S)[nH]c2cc(C(=O)N3CCCC3)ccc2c1=O` was 23.5%. The value for `O=C(Nc1cc([N+](=O)[O-])ccc1Cl)c1ccc2c(c1)OCO2` was -0.172%.

As to `CCOC(=O)CSc1ccc(C(=O)NCCCN2CCOCC2)cc1[N+](=O)[O-]`, the “hERG current change (%, negative = inhibition) at 10uM” value was found to be 10.2%. As for `CN(C(=O)c1ccc(-c2ccccc2)cc1)C1CCCCC1`, the “hERG current change (%, negative = inhibition) at 10uM” value is 1.5%. The value for `Cc1cc(C(=O)NN)c(C)o1` was 10.3%. In the case of `COc1cccc(NC(=S)NNC(=O)Cn2nc([N+](=O)[O-])cc2C)c1`, the “hERG current change (%, negative = inhibition) at 10uM” value turned out to be 22.9%.

With `Cc1ccccc1Oc1cccc(C(=O)/C(C#N)=C/N(C)C)c1`, the “hERG current change (%, negative = inhibition) at 10uM” value is given as -14%. Take `O=C(NCc1ccc2c(c1)OCO2)c1ccco1`: the “hERG current change (%, negative = inhibition) at 10uM” value was found to be 3.19%. The value for `CCCC(=O)NC(C)C(c1cccs1)N1CCN(c2ccccc2)CC1` (centres unmarked) was -7.64%. Regarding `CCN(c1ccccc1)S(=O)(=O)c1ccc(C(=O)OC(C)C(=O)NCCC2=CCCCC2)cc1` (centres unmarked), the “hERG current change (%, negative = inhibition) at 10uM” value is listed as -8.54%.

For `CCOC(=O)CCN(Cc1sccc1C)S(=O)(=O)c1ccc(F)cc1`, the “hERG current change (%, negative = inhibition) at 10uM” value is given as -9.06%. For the compound `O=c1[nH]c(C2CCN(S(=O)(=O)c3ccc(S(=O)(=O)NC4CC4)cc3)CC2)nc2c1nnn2Cc1ccc(F)cc1`, the “hERG current change (%, negative = inhibition) at 10uM” value came out at 3.81%.

(Values after article PMC4336329 (PLoS ONE, 2015).)
